Measurements published in PubChem BioAssay AID624202 (National Center for Advancing Translational Sciences (NCATS), 2012).
Among all 380,000 compounds or so, about 4,000 (1.1%) were called active. This list was built around the results that the source calls inconclusive (neither active nor inactive); the mix of calls is not that of the screen. Calls follow the shape of the dose curve; as a rule, active = well fitted activation curve with a large enough effect; inconclusive = small, poorly fitted or top-dose-only effect; inactive = no such curve, though single readings can be large or run the other way. Where the call is inconclusive, the potency comes from a doubtful curve fit.

assay: qHTS Assay to Identify Small Molecule Activators of BRCA1 Expression; conditions: MCF7-BRCA1-FFLuc reporter, luminescence, 48 h; activation: at 46.1 µM (top of the series), scaled: vehicle 0%, 10 µM genistein 100% unless noted; also: nearly all actives have a fitted effect of over 80% in size
Method in brief: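 MCF7-BRCA1-FFLuc, 2000 cells/well; 2 h attach, 37 °C/5% CO2; compound 48 h; luciferase substrate 15 min; luminescence end-point. Norm. to genistein 10 microM max activation and DMSO; concentration-response curves fitted.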
Potency is read from the fitted curve at half-maximal effect; tags tell the direction and shape of the fitted curve.

SMILES | Potency
O=C(Nc1ccc2oc(-c3ccncc3)nc2c1)c1ccco1 | inconclusive: 11.2 µM [activator, partial curve, poor fit]
O=C(Cc1ccc2c(c1)OCCO2)N1CCN(S(=O)(=O)c2cccc(Cl)c2Cl)CC1 | inactive
COc1ccc2cc3cc(C(=O)N4CCN(Cc5ccc6c(c5)OCO6)CC4)oc3nc2c1 | inactive
NC(=O)C1CCN(c2nc(-c3ccc4ccccc4c3)cs2)CC1 | active: 12.6 µM
C=CCn1c(N/N=C/c2ccc(O)cc2)nc2ccccc2c1=O | inconclusive: 6.31 µM [activator, partial curve, poor fit]
Cc1c(-c2nc(N)nc(Nc3ccccc3F)n2)oc2ccccc12 | inconclusive: 1.26 µM [activator, partial curve, poor fit]
O=C(CCCCn1c(=O)c2ccccc2n(CC(=O)Nc2ccc(F)cc2)c1=O)NCc1ccco1 | inactive
COc1ccccc1Nc1ccc(C(=O)NCc2cccs2)cn1 | inactive
N/C(=N\OC(=O)COc1ccccc1Cl)c1ccccn1 | inconclusive: 0.631 µM [activator, full curve, poor fit]
N#CC(=C1CCCC1)c1nc(-c2ccccc2)cs1 | inconclusive: 2.51 µM [activator, partial curve, poor fit]
OC(CN1C=CCc2ccccc21)c1ccc(Cl)cc1Cl (configuration not stated) | inconclusive: 10 µM [activator, partial curve, poor fit]
O=C(O)c1ccc(N/N=C/c2ccc(-c3ccccc3)cc2)cc1 | inconclusive: 0.562 µM [activator, full curve, poor fit]
CCC(=O)Nc1nc2cc(OC)ccc2s1 | inconclusive: 2 µM [activator, full curve, poor fit]
CCOc1ccc(C(=O)Nc2ccc3c(c2)OCCO3)cc1OC | active: 10 µM
Cc1ccc(-c2nc3ccc(Br)cn3c2Cc2ccsc2)cc1 | inconclusive: 12.6 µM [activator, partial curve, poor fit]
O=C(/C=C/c1ccc(F)cc1)NC(=S)Nc1ccccc1O | active: 12.6 µM
O=C(NCCSC1CCCCC1)c1ccccc1 | inconclusive: 17.8 µM [activator, partial curve, poor fit]
O=C(NC1=NCCS1)c1cccc(OC(F)F)c1 | active: 2.82 µM
c1ccc(CSc2ccc(-c3ccc4c(c3)OCO4)nn2)cc1 | inconclusive: 2.51 µM [activator, full curve, poor fit]
CCn1cc([N+](=O)[O-])c(C(=O)Nc2nc3ccc(OC)cc3s2)n1 | inconclusive: 12.6 µM [activator, partial curve, poor fit]
CCC(=O)N1CCN(c2nc3ccc(Br)cc3s2)CC1 | inconclusive: 8.91 µM [activator, partial curve, poor fit]
Cc1ccnc(NC(=O)CCCNC(=O)c2ccc(Cl)cc2)c1 | inconclusive: 11.2 µM [activator, partial curve, poor fit]
CCN(CC)c1ccc(NC(=O)c2ccco2)cc1 | inconclusive: 0.794 µM [activator, full curve, poor fit]
COC(=O)/C=C/c1ccccc1S(=O)(=O)N(Cc1ccccc1)Cc1ccco1 | inactive

SMILES | Potency
CCOc1c2ccc(C(=O)NCCc3cccs3)cc2nn1CC | inconclusive: 8.91 µM [activator, partial curve, poor fit]
Cc1ccccc1CN1CCc2c(OCC(=O)N3CCCc4ccccc43)cccc2C1=O | inactive
Cc1ccc(S(=O)(=O)CCC(=O)OCC(=O)c2c[nH]c3ccccc23)cc1 | inactive
Cc1ccccc1CSc1nnc(-c2ccccn2)n1N | inconclusive: 17.8 µM [activator, partial curve, poor fit]
Cc1ccccc1NC(=O)CSc1nnc2ccc(-c3ccccn3)nn12 | inactive
Cc1cc(C)cc(NC(=O)N2CCc3ccccc3C2)c1 | inconclusive: 11.2 µM [activator, partial curve, poor fit]
CC(=O)c1ccc2c(c1)Cc1cc(C(C)=O)ccc1-2 | active: 2 µM
Cc1ccccc1CCNC(=O)C1CCN(c2nc3ccccc3nc2C(F)(F)F)CC1 | inactive
O=C(CNC(=O)c1cccs1)N/N=C/c1ccccc1[N+](=O)[O-] | inconclusive: 12.6 µM [activator, single point]
CCOC(=O)C1(Cc2cccc(OC)c2)CCCN(C(=O)c2ccc(OC)o2)C1 (configuration not stated) | inconclusive: 25.1 µM [activator, single point]
CC(=O)Nc1nc(-c2ccc3c(c2)CCO3)cs1 | inconclusive: 1.78 µM [activator, full curve, poor fit]
CC(C)(C)c1ccc(O)c(N=Cc2cccc([N+](=O)[O-])c2)c1 | inactive
c1ccc(Cn2ccnc2-c2ccco2)cc1 | inconclusive: 17.8 µM [activator, single point]
CSc1ncc(CN2CCCC(C(=O)c3ccc(C(C)(C)C)cc3)C2)cn1 (configuration not stated) | inconclusive: 20 µM [activator, single point]
O=C1CC2(CCN(C(=O)c3ccccc3[N+](=O)[O-])CC2)Oc2ccccc21 | inactive
CN(C)CCN(C(=O)c1cccs1)c1nc2cc3c(cc2s1)OCCO3 | active: 11.2 µM
Cc1ccc2oc(-c3ccco3)cc(=O)c2c1 | active: 3.55 µM
Cc1ccc(NC(=O)CN2CCc3ccccc3C2)cc1F | inactive
COc1ccc(N=Nc2c(N)n[nH]c2N)cc1 | inconclusive: 10 µM [activator, partial curve, poor fit]
CC(C)(C)c1ccc(-c2nnc(N)o2)cc1 | inconclusive: 3.98 µM [activator, partial curve, poor fit]
CC(=O)N1CCN(c2ccc(NC(=O)c3cccc(Cl)c3)cc2)CC1 | active: 11.2 µM
C/C(=N\NC(=O)c1nc2ccccn2c1C)c1ccco1 | inconclusive: 10 µM [activator, partial curve, poor fit]
Cc1ccc(CONC(=O)c2cccc(C)c2)cc1 | active: 8.91 µM
COc1ccc(Nc2ccc(OC)cc2)cc1 | inconclusive: 11.2 µM [activator, partial curve, poor fit]

SMILES | Potency
N#CCCn1nc(-c2ccccc2)cc1Nc1ccccc1NC(=O)C(F)(F)F | inactive
Cc1c(C(=O)NCCC2=CCCCC2)cccc1[N+](=O)[O-] | inconclusive: 11.2 µM [activator, partial curve, poor fit]
CC1CCCC(C)N1C(=O)CSc1nnc(-c2cccs2)o1 (configuration not stated) | inconclusive: 1.26 µM [activator, full curve, poor fit]
O=C(Nc1ccc2ncccc2c1)Nc1ccc2ncccc2c1 | inconclusive: 11.2 µM [activator, partial curve, poor fit]
O=C(N/N=C/c1ccccc1C(F)(F)F)c1ccc(O)cc1 | inconclusive: 10 µM [activator, partial curve, poor fit]
CCn1nccc1C(=O)Nc1ccc(C)c(C)c1 | inconclusive: 17.8 µM [activator, partial curve, poor fit]
N/C(=N\OC(=O)c1ccc(Br)o1)c1cccnc1 | inconclusive: 14.1 µM [activator, partial curve, poor fit]
O=C(Nc1ccc([N+](=O)[O-])cc1)N1CCc2ccccc2C1 | inconclusive: 7.94 µM [activator, partial curve, poor fit]
CCCCCCn1cnc2c(oc3nc4c(cc32)CCCC4)c1=O | active: 3.55 µM
Cc1ccc(C(=O)N2CCN(CCNC(=O)C(=O)Nc3ccc(Cl)cc3)CC2)cc1 | inactive
COC(=O)c1c(-c2ccc(OC)cc2)sc2cc3c(cc12)OCO3 | inconclusive: 7.94 µM [activator, partial curve, poor fit]
COc1ccc(CNC(=O)N2CCc3ccccc3C2)cc1 | inconclusive: 11.2 µM [activator, partial curve, poor fit]
Cc1cccc(C)c1-n1nnnc1C(c1ccccc1)N1CCN(C/C=C/c2ccccc2)CC1 (configuration not stated) | inactive
CCCCNC(=O)Nc1nc2ccccc2s1 | inconclusive: 0.562 µM [activator, full curve, poor fit]
Cc1ccc(NC(=O)c2oc3ccc(S(=O)(=O)N4CCOCC4)cc3c2C)c(C)c1 | inactive
COc1cc(/C=c2\sc3nc(=O)c(-c4ccccc4)nn3c2=O)ccc1OCCC(C)C | inactive
COCCn1c(C)cc(C(=O)COC(=O)c2ccc(Br)o2)c1C | inconclusive: 17.8 µM [activator, partial curve, poor fit]
COc1ccc(-n2nc(C(=O)NCC(=O)N3CCN(c4ccccc4F)CC3)c3ccccc3c2=O)cc1 | inconclusive: 4.47 µM [activator, full curve, poor fit]
Cc1ccc(-c2nn(CCC#N)cc2C=C(C#N)C#N)cc1 | inactive
CCOC(=O)c1c(C)[nH]c(C(=O)COC(=O)C2CC2C)c1C (configuration not stated) | inconclusive: 10 µM [activator, partial curve, poor fit]
COc1cccc(NC(=O)C(=O)NCCC2CCCCN2S(=O)(=O)c2ccccc2)c1 (configuration not stated) | inconclusive: 25.1 µM [activator, single point]
C=CCSc1nc2c(cnn2-c2ccccc2)c(=O)n1N | inconclusive: 1.26 µM [activator, partial curve, poor fit]
COc1ccc(CCNC(=O)C(=O)NCc2cccs2)cc1OC | inactive
O=C(Nc1cc(-c2ccccc2)[nH]n1)c1ccc(Cl)cc1 | inconclusive: 2.24 µM [activator, full curve, poor fit]
